Reference: the supplement of paper PMC4604168 (melanoma cell lines)
Some of the results follow. Many values rest on one well or one pass, so single values are uncertain.

system: WM3526; test: cell count relative to DMSO control; melanoma cells; higher = more viable cells; details: library dose: low library concentration; 72 h
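Further: cell number obtained by counting DAPI-stained nuclei in high-throughput microscope images with image analysis software, screen run in 1,536-well plates.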

Compound | cell count
Nc1ccn([C@@H]2O[C@H](CO)[C@@H](O)C2(F)F)c(=O)n1 [gemcitabine] + COc1ccc(COc2ccc(Cc3cnc(N)nc3N)cc2OC)cc1 [GW2580] (first compound 0.0004 µM, partner dose 1 µM) | 92.4%
Nc1ncn([C@H]2C[C@H](O)[C@@H](CO)O2)c(=O)n1 [decitabine] + CC(C)(C)c1cnc(CSc2cnc(NC(=O)C3CCNCC3)s2)o1 [SNS-032] (first compound 0.1 µM, partner dose 0.01 µM) | 94.7%
Nc1nc(F)nc2c1ncn2[C@@H]1O[C@H](CO)[C@@H](O)[C@@H]1O [fludarabine] + Nc1ncn([C@H]2C[C@H](O)[C@@H](CO)O2)c(=O)n1 [decitabine] (first compound 0.2 µM, partner dose 0.1 µM) | 29.5%
CC(=O)O[C@@]12CO[C@@H]1C[C@H](O)[C@@]1(C)C(=O)[C@H](O)C3=C(C)[C@@H](OC(=O)[C@H](O)[C@@H](NC(=O)OC(C)(C)C)c4ccccc4)C[C@@](O)([C@@H](OC(=O)c4ccccc4)[C@H]21)C3(C)C [Docetaxel] + O=C(O)C(=O)Nc1sc2c(c1C(=O)O)CCNC2 [TCS401] (first compound 0.0001 µM, partner dose 1.66667 µM) | 49.5%
Nc1ccn([C@@H]2O[C@H](CO)[C@@H](O)C2(F)F)c(=O)n1 [gemcitabine] + CCN(CC)CCCCNc1ncc2cc(-c3cc(OC)cc(OC)c3)c(NC(=O)NC(C)(C)C)nc2n1 [PD173074] (first compound 0.0004 µM, partner dose 0.1 µM) | 86.5%
CC(=O)c1c(C)c2cnc(Nc3ccc(N4CCNCC4)cn3)nc2n(C2CCCC2)c1=O [palbociclib] + CCN(CC)CCCCNc1ncc2cc(-c3cc(OC)cc(OC)c3)c(NC(=O)NC(C)(C)C)nc2n1 [PD173074] (first compound 0.04 µM, partner dose 0.1 µM) | 66.1%
Nc1ncn([C@H]2C[C@H](O)[C@@H](CO)O2)c(=O)n1 [decitabine] + COc1cc2c(Oc3ccc4[nH]c(C)cc4c3F)ncnc2cc1OCCCN1CCCC1 [cediranib] (first compound 0.1 µM, partner dose 0.4 µM) | 99.8%
CC(=O)c1c(C)c2cnc(Nc3ccc(N4CCNCC4)cn3)nc2n(C2CCCC2)c1=O [palbociclib] + Cc1nc(Nc2ncc(C(=O)Nc3c(C)cccc3Cl)s2)cc(N2CCN(CCO)CC2)n1 [dasatanib] (first compound 0.04 µM, partner dose 0.004 µM) | 74.9%
CO[C@H]1C[C@@H]2CC[C@@H](C)[C@@](O)(O2)C(=O)C(=O)N2CCCC[C@H]2C(=O)O[C@H]([C@H](C)C[C@@H]2CC[C@@H](OCCO)[C@H](OC)C2)CC(=O)[C@H](C)/C=C(\C)[C@@H](O)[C@@H](OC)C(=O)[C@H](C)C[C@H](C)/C=C/C=C/C=C/1C [everolimus] + C=CCNC1=C2C[C@@H](C)C[C@H](OC)[C@H](O)[C@@H](C)/C=C(\C)[C@H](OC(N)=O)[C@@H](OC)/C=C\C=C(/C)C(=O)NC(=CC1=O)C2=O [Tanespimycin] (first compound 0.02 µM, partner dose 0.002 µM) | 58.4%
CC(=O)O[C@@]12CO[C@@H]1C[C@H](O)[C@@]1(C)C(=O)[C@H](O)C3=C(C)[C@@H](OC(=O)[C@H](O)[C@@H](NC(=O)OC(C)(C)C)c4ccccc4)C[C@@](O)([C@@H](OC(=O)c4ccccc4)[C@H]21)C3(C)C [Docetaxel] + Cc1ccc(NC(=O)c2cccc(N(C)C)c2)cc1NC(=O)c1ccc(O)cc1 [ZM336372] (first compound 0.0001 µM, partner dose 2 µM) | 39.6%
CC(=O)O[C@@]12CO[C@@H]1C[C@H](O)[C@@]1(C)C(=O)[C@H](O)C3=C(C)[C@@H](OC(=O)[C@H](O)[C@@H](NC(=O)OC(C)(C)C)c4ccccc4)C[C@@](O)([C@@H](OC(=O)c4ccccc4)[C@H]21)C3(C)C [Docetaxel] + O=C1NC(=O)/C(=C/c2ccc(-c3ccc(F)cc3O)o2)S1 [AS252424] (first compound 0.0001 µM, partner dose 1 µM) | 24%
Nc1ncn([C@H]2C[C@H](O)[C@@H](CO)O2)c(=O)n1 [decitabine] + C[C@]1(c2nc3c(C(N)=O)cccc3[nH]2)CCCN1 [Veliparib] (first compound 0.1 µM, partner dose 1.4 µM) | 130%
Nc1ncn([C@H]2C[C@H](O)[C@@H](CO)O2)c(=O)n1 [decitabine] + COc1ccc(Cl)c(Nc2nc3ccccc3nc2NS(=O)(=O)c2cccc(NC(=O)C(C)(C)N)c2)c1 [XL147] (first compound 0.1 µM, partner dose 0.8 µM) | 125%
CO[C@H]1C[C@@H]2CC[C@@H](C)[C@@](O)(O2)C(=O)C(=O)N2CCCC[C@H]2C(=O)O[C@H]([C@H](C)C[C@@H]2CC[C@@H](OCCO)[C@H](OC)C2)CC(=O)[C@H](C)/C=C(\C)[C@@H](O)[C@@H](OC)C(=O)[C@H](C)C[C@H](C)/C=C/C=C/C=C/1C [everolimus] + N#Cc1c(O)c2c(-c3ccc(-c4ccccc4O)cc3)csc2[nH]c1=O [A769662] (first compound 0.02 µM, partner dose 2 µM) | 84.7%
Nc1ccn([C@@H]2O[C@H](CO)[C@@H](O)C2(F)F)c(=O)n1 [gemcitabine] + OCc1c[nH]c2ccccc12 [Indole-3-carbinol] (first compound 0.0004 µM, partner dose 0.8 µM) | 117%
CO[C@H]1C[C@@H]2CC[C@@H](C)[C@@](O)(O2)C(=O)C(=O)N2CCCC[C@H]2C(=O)O[C@H]([C@H](C)C[C@@H]2CC[C@@H](OCCO)[C@H](OC)C2)CC(=O)[C@H](C)/C=C(\C)[C@@H](O)[C@@H](OC)C(=O)[C@H](C)C[C@H](C)/C=C/C=C/C=C/1C [everolimus] + Oc1cc(-c2nc(-c3ccccc3)[nH]c2-c2ccncc2)ccc1Cl [L779450] (first compound 0.02 µM, partner dose 0.2 µM) | 62.4%
Nc1nc(F)nc2c1ncn2[C@@H]1O[C@H](CO)[C@@H](O)[C@@H]1O [fludarabine] + NC(=O)Nc1cc(-c2cccc(F)c2)sc1C(=O)N[C@H]1CCCNC1 [AZD7762] (first compound 0.2 µM, partner dose 0.02 µM) | 34.4%
Nc1nc(F)nc2c1ncn2[C@@H]1O[C@H](CO)[C@@H](O)[C@@H]1O [fludarabine] + COc1cc(Nc2ncc(F)c(Nc3ccc4c(n3)NC(=O)C(C)(C)O4)n2)cc(OC)c1OC [Tamatinib] (first compound 0.2 µM, partner dose 0.4 µM) | 43.5%
Nc1ccn([C@@H]2O[C@H](CO)[C@@H](O)C2(F)F)c(=O)n1 [gemcitabine] + O=C(Nc1cccc(Cl)c1)Nc1ncc(CCNc2ncnc3ccsc23)s1 [SNS314] (first compound 0.0004 µM, partner dose 0.0008 µM) | 84%
CC(=O)O[C@@]12CO[C@@H]1C[C@H](O)[C@@]1(C)C(=O)[C@H](O)C3=C(C)[C@@H](OC(=O)[C@H](O)[C@@H](NC(=O)OC(C)(C)C)c4ccccc4)C[C@@](O)([C@@H](OC(=O)c4ccccc4)[C@H]21)C3(C)C [Docetaxel] + CC(C)C[C@H](NC(=O)[C@H](Cc1ccccc1)NC(=O)c1cnccn1)B(O)O [Bortezomib] (first compound 0.0001 µM, partner dose 0.001 µM) | 50.6%
Nc1nc(F)nc2c1ncn2[C@@H]1O[C@H](CO)[C@@H](O)[C@@H]1O [fludarabine] + Cn1c(Nc2ccc(C(F)(F)F)cc2)nc2cc(Oc3ccnc(-c4ncc(C(F)(F)F)[nH]4)c3)ccc21 [CHIR265] (first compound 0.2 µM, partner dose 0.08 µM) | 19.2%
CC(=O)O[C@@]12CO[C@@H]1C[C@H](O)[C@@]1(C)C(=O)[C@H](O)C3=C(C)[C@@H](OC(=O)[C@H](O)[C@@H](NC(=O)OC(C)(C)C)c4ccccc4)C[C@@](O)([C@@H](OC(=O)c4ccccc4)[C@H]21)C3(C)C [Docetaxel] + Nc1ccn([C@@H]2O[C@H](CO)[C@@H](O)C2(F)F)c(=O)n1 [gemcitabine] (first compound 0.0001 µM, partner dose 0.0004 µM) | 49.6%
Nc1ncn([C@H]2C[C@H](O)[C@@H](CO)O2)c(=O)n1 [decitabine] + O=C(O)C(=O)Nc1sc2c(c1C(=O)O)CCNC2 [TCS401] (first compound 0.1 µM, partner dose 1.66667 µM) | 75.8%
CO[C@H]1C[C@@H]2CC[C@@H](C)[C@@](O)(O2)C(=O)C(=O)N2CCCC[C@H]2C(=O)O[C@H]([C@H](C)C[C@@H]2CC[C@@H](OCCO)[C@H](OC)C2)CC(=O)[C@H](C)/C=C(\C)[C@@H](O)[C@@H](OC)C(=O)[C@H](C)C[C@H](C)/C=C/C=C/C=C/1C [everolimus] + CC(=O)c1c(C)c2cnc(Nc3ccc(N4CCNCC4)cn3)nc2n(C2CCCC2)c1=O [palbociclib] (first compound 0.02 µM, partner dose 0.04 µM) | 47.5%
CC(=O)O[C@@]12CO[C@@H]1C[C@H](O)[C@@]1(C)C(=O)[C@H](O)C3=C(C)[C@@H](OC(=O)[C@H](O)[C@@H](NC(=O)OC(C)(C)C)c4ccccc4)C[C@@](O)([C@@H](OC(=O)c4ccccc4)[C@H]21)C3(C)C [Docetaxel] + Oc1nc(-c2ccc(C(F)(F)F)cc2)nc2c1CSCC2 [XAV939] (first compound 0.0001 µM, partner dose 2 µM) | 37.4%
